Measurements taken from ChEMBL document CHEMBL1961873, “Compounds: GSK PKIS; Assays: Nanosyn kinase panel” (2012).
For part of these data: The strong results were mostly taken out for another list; the other results follow. Only a part is listed here, and it is no random draw.

Assays:
[1] = molecular target: Tyrosine-protein kinase Fyn (Homo sapiens) (UniProt P06241); conditions: at 1 µM
[2] = molecular target: Tyrosine-protein kinase HCK (Homo sapiens) (UniProt P08631); conditions: at 0.1 µM
[3] = molecular target: Tyrosine-protein kinase HCK (Homo sapiens) (UniProt P08631); conditions: at 1 µM
[4] = molecular target: Insulin-like growth factor 1 receptor (Homo sapiens) (UniProt P08069); conditions: at 0.1 µM
[5] = molecular target: Insulin-like growth factor 1 receptor (Homo sapiens) (UniProt P08069); conditions: at 1 µM
[6] = molecular target: Insulin receptor (Homo sapiens) (UniProt P06213); conditions: at 0.1 µM
[7] = molecular target: Insulin receptor (Homo sapiens) (UniProt P06213); conditions: at 1 µM
[8] = molecular target: Insulin receptor-related protein (Homo sapiens) (UniProt P14616); conditions: at 0.1 µM
[9] = molecular target: Insulin receptor-related protein (Homo sapiens) (UniProt P14616); conditions: at 1 µM
[10] = molecular target: T1, Tyrosine-protein kinase ITK/TSK (Homo sapiens) (UniProt Q08881); conditions: at 0.1 µM
T1 sequence (whole entry): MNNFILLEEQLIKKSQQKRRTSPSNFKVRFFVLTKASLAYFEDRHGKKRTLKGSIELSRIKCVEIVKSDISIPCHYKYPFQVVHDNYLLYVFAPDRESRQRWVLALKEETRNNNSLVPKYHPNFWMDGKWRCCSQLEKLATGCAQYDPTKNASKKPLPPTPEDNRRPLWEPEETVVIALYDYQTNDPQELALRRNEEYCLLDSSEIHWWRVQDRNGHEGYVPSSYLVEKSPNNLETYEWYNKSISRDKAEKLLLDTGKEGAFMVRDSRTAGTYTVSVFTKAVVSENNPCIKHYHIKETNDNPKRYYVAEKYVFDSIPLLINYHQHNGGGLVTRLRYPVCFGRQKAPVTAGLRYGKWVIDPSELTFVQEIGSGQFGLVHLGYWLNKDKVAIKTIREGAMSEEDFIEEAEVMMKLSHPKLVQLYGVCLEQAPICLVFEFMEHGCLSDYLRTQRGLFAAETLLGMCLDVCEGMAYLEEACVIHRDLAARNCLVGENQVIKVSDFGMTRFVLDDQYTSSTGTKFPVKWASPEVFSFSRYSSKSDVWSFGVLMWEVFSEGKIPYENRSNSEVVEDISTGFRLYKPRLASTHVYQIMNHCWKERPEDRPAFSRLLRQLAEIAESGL

[11] = molecular target: T1, Tyrosine-protein kinase ITK/TSK (Homo sapiens); conditions: at 1 µM
[12] = molecular target: Tyrosine-protein kinase JAK1 (Homo sapiens) (UniProt P23458); conditions: at 0.1 µM
[13] = molecular target: Tyrosine-protein kinase JAK1 (Homo sapiens) (UniProt P23458); conditions: at 1 µM
[14] = molecular target: Tyrosine-protein kinase JAK2 (Homo sapiens) (UniProt O60674); conditions: at 0.1 µM
UniProt O60674, sequence (O60674 whole entry): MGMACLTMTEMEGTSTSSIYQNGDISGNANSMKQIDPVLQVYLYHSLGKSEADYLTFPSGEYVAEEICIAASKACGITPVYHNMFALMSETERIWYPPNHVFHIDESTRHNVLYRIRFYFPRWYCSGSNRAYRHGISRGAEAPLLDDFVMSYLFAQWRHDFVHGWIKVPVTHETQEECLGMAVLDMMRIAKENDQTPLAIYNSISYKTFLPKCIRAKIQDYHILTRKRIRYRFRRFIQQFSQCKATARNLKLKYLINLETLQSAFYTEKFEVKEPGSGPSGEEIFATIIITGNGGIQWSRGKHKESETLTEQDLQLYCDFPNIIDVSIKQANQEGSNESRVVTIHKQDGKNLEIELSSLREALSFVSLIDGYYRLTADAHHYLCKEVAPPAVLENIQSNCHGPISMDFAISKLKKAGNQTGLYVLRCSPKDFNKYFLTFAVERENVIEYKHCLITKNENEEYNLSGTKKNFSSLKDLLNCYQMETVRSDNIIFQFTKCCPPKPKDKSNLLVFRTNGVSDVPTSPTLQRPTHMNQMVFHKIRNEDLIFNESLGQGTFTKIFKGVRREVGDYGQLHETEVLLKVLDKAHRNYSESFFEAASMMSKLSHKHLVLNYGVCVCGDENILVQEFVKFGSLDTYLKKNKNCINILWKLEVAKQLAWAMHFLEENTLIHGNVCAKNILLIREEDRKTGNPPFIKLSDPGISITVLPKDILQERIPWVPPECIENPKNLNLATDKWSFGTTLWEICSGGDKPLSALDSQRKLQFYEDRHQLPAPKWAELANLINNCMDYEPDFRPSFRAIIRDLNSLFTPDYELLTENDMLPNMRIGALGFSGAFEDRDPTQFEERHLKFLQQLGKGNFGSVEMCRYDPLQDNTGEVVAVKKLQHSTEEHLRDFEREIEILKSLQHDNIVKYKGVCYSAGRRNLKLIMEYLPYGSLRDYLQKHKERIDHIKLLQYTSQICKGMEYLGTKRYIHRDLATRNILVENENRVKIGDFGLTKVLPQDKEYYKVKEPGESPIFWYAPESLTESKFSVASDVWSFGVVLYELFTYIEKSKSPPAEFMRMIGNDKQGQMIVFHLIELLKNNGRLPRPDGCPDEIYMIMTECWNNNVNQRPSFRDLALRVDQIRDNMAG

[15] = molecular target: Tyrosine-protein kinase JAK2 (Homo sapiens) (UniProt O60674); conditions: at 1 µM
[16] = molecular target: T2, Tyrosine-protein kinase JAK3 (Homo sapiens) (UniProt P52333); conditions: at 0.1 µM
T2 sequence (whole entry): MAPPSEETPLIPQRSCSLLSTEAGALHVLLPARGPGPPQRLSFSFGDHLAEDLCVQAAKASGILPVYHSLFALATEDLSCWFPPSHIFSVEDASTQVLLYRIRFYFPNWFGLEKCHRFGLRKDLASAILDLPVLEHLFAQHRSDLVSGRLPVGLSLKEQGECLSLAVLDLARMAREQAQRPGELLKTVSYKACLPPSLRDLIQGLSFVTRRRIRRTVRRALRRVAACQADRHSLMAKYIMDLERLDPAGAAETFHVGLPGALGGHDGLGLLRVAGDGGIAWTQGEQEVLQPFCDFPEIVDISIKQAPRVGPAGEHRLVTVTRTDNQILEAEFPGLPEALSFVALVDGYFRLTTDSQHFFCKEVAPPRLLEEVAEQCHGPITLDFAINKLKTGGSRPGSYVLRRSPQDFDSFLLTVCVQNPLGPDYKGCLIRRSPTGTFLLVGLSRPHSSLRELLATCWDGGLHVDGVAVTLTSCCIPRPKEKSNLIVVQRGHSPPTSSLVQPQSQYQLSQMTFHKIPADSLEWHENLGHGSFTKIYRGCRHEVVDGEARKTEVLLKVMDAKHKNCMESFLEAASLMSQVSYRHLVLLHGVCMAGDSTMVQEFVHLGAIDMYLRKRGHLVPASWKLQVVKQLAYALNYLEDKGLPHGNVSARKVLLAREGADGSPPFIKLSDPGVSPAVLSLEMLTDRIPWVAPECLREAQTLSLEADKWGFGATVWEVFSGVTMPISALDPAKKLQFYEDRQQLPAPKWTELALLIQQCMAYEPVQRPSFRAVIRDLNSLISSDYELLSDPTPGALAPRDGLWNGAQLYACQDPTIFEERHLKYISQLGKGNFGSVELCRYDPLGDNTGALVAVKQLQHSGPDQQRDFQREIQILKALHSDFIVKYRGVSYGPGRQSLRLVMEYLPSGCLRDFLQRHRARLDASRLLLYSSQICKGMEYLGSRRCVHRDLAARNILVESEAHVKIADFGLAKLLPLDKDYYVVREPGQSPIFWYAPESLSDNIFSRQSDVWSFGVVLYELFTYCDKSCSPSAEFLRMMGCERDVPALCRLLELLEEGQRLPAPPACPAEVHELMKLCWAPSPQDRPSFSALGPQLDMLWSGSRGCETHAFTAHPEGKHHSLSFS

[17] = molecular target: T2, Tyrosine-protein kinase JAK3 (Homo sapiens); conditions: at 1 µM
[18] = molecular target: Vascular endothelial growth factor receptor 2 (Homo sapiens) (UniProt P35968); conditions: at 0.1 µM
UniProt P35968, sequence (P35968 whole entry): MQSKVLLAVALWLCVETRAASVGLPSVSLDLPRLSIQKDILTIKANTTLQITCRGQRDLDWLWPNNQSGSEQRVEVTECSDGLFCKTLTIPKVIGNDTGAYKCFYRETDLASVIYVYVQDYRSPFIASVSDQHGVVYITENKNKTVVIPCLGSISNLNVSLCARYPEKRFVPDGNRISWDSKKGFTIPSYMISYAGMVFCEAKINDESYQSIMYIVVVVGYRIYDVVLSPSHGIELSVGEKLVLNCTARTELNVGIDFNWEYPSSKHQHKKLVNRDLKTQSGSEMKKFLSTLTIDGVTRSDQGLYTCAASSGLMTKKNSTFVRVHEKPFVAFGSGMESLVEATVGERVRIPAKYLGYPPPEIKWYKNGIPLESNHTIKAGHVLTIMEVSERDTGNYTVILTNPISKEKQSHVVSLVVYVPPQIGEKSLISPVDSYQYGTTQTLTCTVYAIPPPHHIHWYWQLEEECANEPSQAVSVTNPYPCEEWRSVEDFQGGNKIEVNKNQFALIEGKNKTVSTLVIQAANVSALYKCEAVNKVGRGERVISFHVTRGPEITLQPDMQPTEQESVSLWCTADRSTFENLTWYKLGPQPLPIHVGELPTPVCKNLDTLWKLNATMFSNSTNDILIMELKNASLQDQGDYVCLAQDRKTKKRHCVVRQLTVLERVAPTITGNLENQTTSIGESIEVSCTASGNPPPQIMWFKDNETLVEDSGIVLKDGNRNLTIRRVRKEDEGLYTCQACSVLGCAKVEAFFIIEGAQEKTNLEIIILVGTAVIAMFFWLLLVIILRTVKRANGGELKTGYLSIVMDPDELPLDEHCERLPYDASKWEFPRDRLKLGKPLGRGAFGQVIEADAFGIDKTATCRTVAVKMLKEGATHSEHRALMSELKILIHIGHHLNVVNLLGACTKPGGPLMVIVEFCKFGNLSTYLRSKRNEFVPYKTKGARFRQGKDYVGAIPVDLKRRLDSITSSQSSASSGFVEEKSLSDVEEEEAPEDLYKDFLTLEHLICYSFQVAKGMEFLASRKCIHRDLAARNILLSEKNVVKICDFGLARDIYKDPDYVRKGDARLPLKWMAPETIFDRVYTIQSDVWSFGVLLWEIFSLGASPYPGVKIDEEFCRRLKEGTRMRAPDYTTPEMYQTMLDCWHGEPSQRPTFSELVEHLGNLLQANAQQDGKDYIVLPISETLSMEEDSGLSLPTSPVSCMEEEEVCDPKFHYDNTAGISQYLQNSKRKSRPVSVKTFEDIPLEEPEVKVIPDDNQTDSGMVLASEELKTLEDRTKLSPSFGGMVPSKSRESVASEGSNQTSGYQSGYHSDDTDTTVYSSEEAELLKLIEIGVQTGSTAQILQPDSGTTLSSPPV

[19] = molecular target: Vascular endothelial growth factor receptor 2 (Homo sapiens) (UniProt P35968); conditions: at 1 µM
[20] = molecular target: Mast/stem cell growth factor receptor Kit (Homo sapiens) (UniProt P10721); conditions: at 0.1 µM;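 further: values are mean inhibition of KIT, from the GSK PKIS dataset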
UniProt P10721, sequence (P10721 whole entry): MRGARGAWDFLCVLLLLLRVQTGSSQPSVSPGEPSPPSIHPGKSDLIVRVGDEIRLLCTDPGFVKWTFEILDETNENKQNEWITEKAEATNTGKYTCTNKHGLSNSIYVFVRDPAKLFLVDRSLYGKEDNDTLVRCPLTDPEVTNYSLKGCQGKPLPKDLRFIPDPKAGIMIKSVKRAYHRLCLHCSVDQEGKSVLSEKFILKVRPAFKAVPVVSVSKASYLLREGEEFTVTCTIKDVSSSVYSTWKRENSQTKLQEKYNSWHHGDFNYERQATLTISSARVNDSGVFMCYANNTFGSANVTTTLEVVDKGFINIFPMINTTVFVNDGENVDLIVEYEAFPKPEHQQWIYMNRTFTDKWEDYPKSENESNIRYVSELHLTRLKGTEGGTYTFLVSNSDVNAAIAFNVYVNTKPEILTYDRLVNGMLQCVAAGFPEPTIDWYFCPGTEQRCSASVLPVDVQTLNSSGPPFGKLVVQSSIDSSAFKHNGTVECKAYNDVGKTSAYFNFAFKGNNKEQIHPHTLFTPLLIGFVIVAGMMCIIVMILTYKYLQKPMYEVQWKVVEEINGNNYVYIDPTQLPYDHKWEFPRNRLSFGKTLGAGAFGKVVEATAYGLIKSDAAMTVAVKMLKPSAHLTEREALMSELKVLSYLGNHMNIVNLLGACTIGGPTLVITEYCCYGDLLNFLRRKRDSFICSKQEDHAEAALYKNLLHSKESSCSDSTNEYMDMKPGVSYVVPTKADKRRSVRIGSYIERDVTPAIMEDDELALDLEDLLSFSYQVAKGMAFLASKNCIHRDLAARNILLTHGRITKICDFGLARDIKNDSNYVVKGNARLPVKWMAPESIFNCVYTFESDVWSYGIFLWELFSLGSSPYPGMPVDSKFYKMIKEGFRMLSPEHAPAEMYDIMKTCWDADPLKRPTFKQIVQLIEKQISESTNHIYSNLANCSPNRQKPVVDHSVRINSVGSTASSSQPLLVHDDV

UniProt P08631, sequence (P08631 whole entry, looked up): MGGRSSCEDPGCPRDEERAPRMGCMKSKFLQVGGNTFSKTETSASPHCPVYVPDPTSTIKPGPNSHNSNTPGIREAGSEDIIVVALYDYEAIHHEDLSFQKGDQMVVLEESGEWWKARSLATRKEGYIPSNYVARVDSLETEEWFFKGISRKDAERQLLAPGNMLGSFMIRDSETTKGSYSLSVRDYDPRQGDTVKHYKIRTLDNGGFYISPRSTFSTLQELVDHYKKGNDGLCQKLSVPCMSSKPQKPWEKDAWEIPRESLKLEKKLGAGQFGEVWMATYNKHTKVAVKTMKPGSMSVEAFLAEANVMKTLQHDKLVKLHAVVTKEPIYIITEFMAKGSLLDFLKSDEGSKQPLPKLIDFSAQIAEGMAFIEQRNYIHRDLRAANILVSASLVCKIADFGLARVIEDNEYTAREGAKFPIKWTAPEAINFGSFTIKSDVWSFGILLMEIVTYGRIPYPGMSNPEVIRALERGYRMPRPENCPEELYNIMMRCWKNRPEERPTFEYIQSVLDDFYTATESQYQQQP
UniProt P06241, sequence (P06241 whole entry, looked up): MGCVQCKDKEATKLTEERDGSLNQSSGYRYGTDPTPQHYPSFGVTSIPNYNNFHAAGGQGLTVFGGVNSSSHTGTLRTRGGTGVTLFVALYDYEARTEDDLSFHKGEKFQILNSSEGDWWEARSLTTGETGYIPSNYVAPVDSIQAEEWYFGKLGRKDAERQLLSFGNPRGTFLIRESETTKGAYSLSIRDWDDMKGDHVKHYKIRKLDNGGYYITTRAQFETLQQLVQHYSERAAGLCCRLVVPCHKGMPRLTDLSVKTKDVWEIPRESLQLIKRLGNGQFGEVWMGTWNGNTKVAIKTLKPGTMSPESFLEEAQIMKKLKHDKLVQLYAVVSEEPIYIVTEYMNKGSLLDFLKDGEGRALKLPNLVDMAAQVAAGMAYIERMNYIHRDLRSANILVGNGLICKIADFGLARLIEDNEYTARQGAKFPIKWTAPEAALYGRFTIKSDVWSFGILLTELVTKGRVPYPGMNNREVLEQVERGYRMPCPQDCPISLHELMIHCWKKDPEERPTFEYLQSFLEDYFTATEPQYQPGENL

**Q.** Which inhibition [1] does the source give for `Cc1cccc(Oc2nccc(-c3c(-c4ccc(F)cc4)ncn3C3CCNCC3)n2)c1C` here?
**A.** 3.47%

**Q.** What about the inhibition [2] of the same compound?
**A.** 3.08%

**Q.** And the inhibition [3]?
**A.** 3.84%

**Q.** And the inhibition [4]?
**A.** 0.76%

**Q.** And the inhibition [5]?
**A.** 2.84%

**Q.** And the inhibition [6]?
**A.** 0.19%

**Q.** What about the inhibition [7] of the same compound?
**A.** 1.99%

**Q.** And the inhibition [8]?
**A.** 2.53%

**Q.** And the inhibition [9]?
**A.** 3.84%

**Q.** And the inhibition [10]?
**A.** -0.05%

**Q.** And the inhibition [11]?
**A.** 1.92%

**Q.** And the inhibition [12]?
**A.** 3.42%

**Q.** And the inhibition [13]?
**A.** 4.81%

**Q.** What about the inhibition [14] of the same compound?
**A.** 1.92%

**Q.** What about the inhibition [15] of the same compound?
**A.** 0.38%

**Q.** What about the inhibition [16] of the same compound?
**A.** -2.52%

**Q.** What about the inhibition [17] of the same compound?
**A.** -0.16%

**Q.** And the inhibition [18]?
**A.** 1.49%

**Q.** What about the inhibition [19] of the same compound?
**A.** 6.62%

**Q.** And the inhibition [20]?
**A.** 5.92%

**Q.** For `Fc1ccc(Oc2nccc(-c3c(-c4ccc(F)cc4)ncn3C3CCNCC3)n2)cc1`, which inhibition [1] is on record?
**A.** -4.65%

**Q.** What about the inhibition [2] of the same compound?
**A.** 5.89%

**Q.** And the inhibition [3]?
**A.** 8.22%

**Q.** And the inhibition [4]?
**A.** -7.87%

**Q.** And the inhibition [5]?
**A.** -3.24%

**Q.** What about the inhibition [6] of the same compound?
**A.** 5.95%

**Q.** What about the inhibition [7] of the same compound?
**A.** 3.26%

**Q.** What about the inhibition [8] of the same compound?
**A.** 2.47%

**Q.** And the inhibition [9]?
**A.** 3.33%

**Q.** What about the inhibition [10] of the same compound?
**A.** -1.5%

**Q.** What about the inhibition [11] of the same compound?
**A.** -2.45%

**Q.** And the inhibition [12]?
**A.** 0.32%

**Q.** What about the inhibition [13] of the same compound?
**A.** -0.55%

**Q.** And the inhibition [14]?
**A.** 2.11%

**Q.** What about the inhibition [15] of the same compound?
**A.** 3.3%

**Q.** What about the inhibition [16] of the same compound?
**A.** -3.84%

**Q.** What about the inhibition [17] of the same compound?
**A.** -5.11%

**Q.** And the inhibition [18]?
**A.** 5.89%

**Q.** And the inhibition [19]?
**A.** 12.3%

**Q.** And the inhibition [20]?
**A.** 3.19%

**Q.** With `NC(=O)CCc1ccccc1Oc1nccc(-c2c(-c3ccc(F)cc3)ncn2C2CCNCC2)n1` as the compound, how does the inhibition [1] read?
**A.** 3.29%

**Q.** What about the inhibition [2] of the same compound?
**A.** -2.31%

**Q.** What about the inhibition [3] of the same compound?
**A.** -1.38%

**Q.** And the inhibition [4]?
**A.** 0.52%

**Q.** And the inhibition [5]?
**A.** 1.3%

**Q.** What about the inhibition [6] of the same compound?
**A.** 2.72%

**Q.** What about the inhibition [7] of the same compound?
**A.** -2.14%

**Q.** What about the inhibition [8] of the same compound?
**A.** -3.71%

**Q.** And the inhibition [9]?
**A.** -1.88%

**Q.** And the inhibition [10]?
**A.** -0.54%

**Q.** What about the inhibition [11] of the same compound?
**A.** -0.59%

**Q.** What about the inhibition [12] of the same compound?
**A.** -4.59%

**Q.** And the inhibition [13]?
**A.** -4.73%

**Q.** What about the inhibition [14] of the same compound?
**A.** -1%

**Q.** What about the inhibition [15] of the same compound?
**A.** -1.75%

**Q.** What about the inhibition [16] of the same compound?
**A.** -0.4%

**Q.** And the inhibition [17]?
**A.** -0.32%

**Q.** What about the inhibition [18] of the same compound?
**A.** -0.88%

**Q.** What about the inhibition [19] of the same compound?
**A.** -0.22%

**Q.** What about the inhibition [20] of the same compound?
**A.** -3.53%
